Values joined by “and” are separate entries in the source; they are usually repeats but may differ in a detail not shown here. Equal entries are not always repeated. Inconclusive results, whose numbers are uncertain, are shown with a selection of clear calls. Where the call is inconclusive, the potency comes from a doubtful curve fit. A structure can be active in one record and inactive in another. Active and inactive are the calls of the source. The call rests on the fitted dose curve; in most records, active means well fitted curve in the direction sought with a large enough effect in the repeat runs; inconclusive means weak or mixed curves; inactive means no such curve, though single readings can be large; an effect the other way counts as inactive or inconclusive.
Experiment: qHTS assay to identify small molecule agonists of the RXR signaling pathway - cell viability counter screen (AID 1159529); further: nearly all actives have a fitted effect of over 50% in size
Details: RXR-alpha-bla HEK293T viability, CellTiter-Glo, 16 h; series mostly up to 76.8 µM
In short: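 CellTiter-Glo luminescence gave viability in the wells also read for beta-lactamase. Cells (RXR-alpha-UAS-bla HEK 293T, 2% charcoal-stripped FBS medium) had 5 hr plating, then 16 hr compound exposure at 37 C; tetraoctyl ammonium bromide served as positive control.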
Potency means the concentration at half of the fitted maximal effect; tags describe the fitted curve by direction and shape.

Row | SMILES | Potency
1 | Cc1cc(C)nc(Nc2ccccc2)n1 | inactive
2 | CC(C)(C)c1ccc(CSc2cnn(C(C)(C)C)c(=O)c2Cl)cc1 | inconclusive: 34.7 µM [cytotoxic, partial curve]
3 | CC1(C)CCC(Cc2ccc(Cl)cc2)C1(O)Cn1cncn1 (stereo not given) | inconclusive: 27.5 µM [cytotoxic, partial curve]
4 | C[C@H]1CCC[C@H](O)CCCCCc2cc(O)cc(O)c2C(=O)O1 | inconclusive: 6.97 µM [rising, full curve, poor fit]
5 | C=CCOC(=O)c1ccccc1N | inconclusive: 31.1 µM [cytotoxic, partial curve, poor fit]
6 | Nc1ccc(Cc2ccc(N)c(Cl)c2)cc1Cl | inconclusive: 53.1 µM [cytotoxic, partial curve]
7 | O=[N+]([O-])O.O=[N+]([O-])O.[Cd] | active: 43.6 µM
8 | CCC[N+](=O)[O-] | active: 30.3 µM and inactive
9 | CC(c1ccccc1)(c1ccc(O)cc1)c1ccc(O)cc1 | inconclusive: 61.6 µM [cytotoxic, single point]
10 | CCOP(=S)(NC(C)C)Oc1ccccc1C(=O)OC(C)C (stereo not given) | inconclusive: 12.3 µM [cytotoxic, full curve]
11 | CSC(=O)c1c(C(F)F)nc(C(F)(F)F)c(C(=O)SC)c1CC(C)C | inconclusive: 34.5 µM [cytotoxic, partial curve, poor fit]
12 | Cc1ccc(N=CN(C)C=Nc2ccc(C)cc2C)c(C)c1 | active: 43.8 µM and active: 43.6 µM
13 | O=c1oc2ccccc2c(O)c1Cc1c(O)c2ccccc2oc1=O | inconclusive: 6.01 µM [cytotoxic, partial curve, poor fit]
14 | O=[N+]([O-])c1ccc2ccc3cccc4ccc1c2c34 | inconclusive: 1.74 µM [cytotoxic, partial curve, poor fit]
15 | CCCCC(CC)COP(=O)(Oc1ccccc1)Oc1ccccc1 (stereo not given) | inconclusive: 15.5 µM [cytotoxic, partial curve, poor fit]
16 | CCCCCc1cc(O)cc(O)c1 | inconclusive: 61.7 µM [cytotoxic, single point]
17 | COP(=S)(OC)Oc1cc(Cl)c(Br)cc1Cl | inconclusive: 21.9 µM [cytotoxic, partial curve, poor fit]
18 | Cc1cc(C)c(C(=O)P(=O)(c2ccccc2)c2ccccc2)c(C)c1 | active: 49 µM
19 | C[C@]12C/C(=C/O)C(=O)C[C@@H]1CC[C@@H]1[C@@H]2CC[C@@]2(C)[C@H]1CC[C@]2(C)O | inconclusive: 19 µM [cytotoxic, partial curve]
20 | CCCCNC(=O)OCC#CI | inconclusive: 21.8 µM [cytotoxic, partial curve] and inconclusive: 21.9 µM [cytotoxic, partial curve, poor fit]
21 | OC(c1ccc(Cl)cc1)(c1cncnc1)c1ccccc1Cl (stereo not given) | inconclusive: 62.7 µM [cytotoxic, single point]
22 | c1ccc(N=NNc2ccccc2)cc1 | inconclusive: 35.9 µM [cytotoxic, partial curve] and inactive
23 | O=C(CCl)C(Cl)Cl | inconclusive: 6.22 µM [cytotoxic, full curve]

Experiment: qHTS assay to identify small molecule antagonists of the retinoid acid receptor (RAR) signaling pathway - cell viability counter screen (AID 1159551); further: nearly all actives have a fitted effect of over 35% in size
Details: C3RL4 cells viability, ATP luminescence (CellTiter-Glo), 6 h; series mostly up to 92.4 µM
In short: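 Cells (C3RL4) are plated, incubated overnight, dosed with compound in DMSO, then given retinol at 1 uM final. After 6 h at 37 C, CellTiter-Glo is added and luminescence read following 30 min at room temperature.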

Row | SMILES | Potency
24 | Nc1ccc(Cc2ccc(N)c(Cl)c2)cc1Cl | inconclusive: 66.3 µM [cytotoxic, partial curve, poor fit]
25 | COc1ccc2c3c1O[C@H]1[C@@H](O)C=C[C@H]4[C@@H](C2)N(C)CC[C@@]341 | inconclusive: 30.1 µM [rising, partial curve, poor fit]
26 | CCC[N+](=O)[O-] | inconclusive: 42.5 µM [rising, partial curve, poor fit]
27 | CC(c1ccccc1)(c1ccc(O)cc1)c1ccc(O)cc1 | inconclusive: 43.3 µM [cytotoxic, partial curve, poor fit]
28 | CC(C)Nc1ccc(Nc2ccccc2)cc1 | inconclusive: 68.3 µM [cytotoxic, single point] and inconclusive: 68.6 µM [cytotoxic, single point]
29 | CC[n+]1ccccc1 | active: 54 µM
30 | CCCCCc1cc(O)cc(O)c1 | inconclusive: 68.6 µM [cytotoxic, single point]
31 | [Cl][Sn]([c]1ccccc1)([c]1ccccc1)[c]1ccccc1 | active: 4.61 µM
32 | C[C@]12C/C(=C/O)C(=O)C[C@@H]1CC[C@@H]1[C@@H]2CC[C@@]2(C)[C@H]1CC[C@]2(C)O | inconclusive: 27.6 µM [rising, partial curve, poor fit]
33 | CCCCNC(=O)OCC#CI | active: 68.2 µM and inconclusive: 68.6 µM [cytotoxic]
34 | CCCCC(O)(Cn1cncn1)c1ccc(Cl)cc1Cl (stereo not given) | inconclusive: 54.4 µM [cytotoxic, partial curve]
35 | c1ccc(N=NNc2ccccc2)cc1 | inconclusive: 71 µM [cytotoxic] and inconclusive: 68.6 µM [cytotoxic, partial curve, poor fit]

— PubChem BioAssay (Tox21)
